This is one part of the list. Most values come without repeats; read them as rough.
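Also: cells treated in 1,536-well plates, then fixed and DAPI-stained, with nuclei counted from automated high-throughput microscope images.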

The experiment relates to WM115. Nature of the experiment: cell count relative to DMSO control; melanoma cells; higher = more viable cells. The conditions noted are these: library dose: standard library concentration; 72 h.
On to `CCCS(=O)(=O)Nc1ccc(F)c(C(=O)c2c[nH]c3ncc(Cl)cc23)c1F` + NC(=O)Nc1cc(-c2cccc(F)c2)sc1C(=O)N[C@H]1CCCNC1 [AZD7762] (first compound 0.4 µM, partner dose 0.1 µM), for which the cell count was determined as 59%.
As to `CN(c1ncccc1CNc1nc(Nc2ccc3c(c2)CC(=O)N3)ncc1C(F)(F)F)S(C)(=O)=O` + O=c1cc(-c2cccc3c2Sc2ccccc2S3)oc(N2CCOCC2)c1 [KU55933] (first compound 0.4 µM, partner dose 5 µM), the cell count was determined as 83.7%.
As for `CN(c1ncccc1CNc1nc(Nc2ccc3c(c2)CC(=O)N3)ncc1C(F)(F)F)S(C)(=O)=O` + O=C(O)C(=O)Nc1sc2c(c1C(=O)O)CCNC2 [TCS401] (first compound 0.4 µM, partner dose 8.33333 µM), the cell count was 81.9%.
For the compound `NC1(c2ccc(-c3nc4ccn5c(=O)[nH]nc5c4cc3-c3ccccc3)cc2)CCC1` + O=S(=O)(c1ccccc1)N(CC(F)(F)F)c1ccc(C(O)(C(F)(F)F)C(F)(F)F)cc1 [T0901317] (first compound 2 µM, partner dose 7 µM), the cell count was found to be 69.7%.
`CCCS(=O)(=O)Nc1ccc(F)c(C(=O)c2c[nH]c3ncc(Cl)cc23)c1F` + O=S(=O)(c1ccccc1)N(CC(F)(F)F)c1ccc(C(O)(C(F)(F)F)C(F)(F)F)cc1 [T0901317] (first compound 0.4 µM, partner dose 7 µM) yielded a cell count of 77.3%.
In the case of `CN(c1ncccc1CNc1nc(Nc2ccc3c(c2)CC(=O)N3)ncc1C(F)(F)F)S(C)(=O)=O` + O=C(Nc1ccccc1)c1cc([N+](=O)[O-])ccc1Cl [GW9662] (first compound 0.4 µM, partner dose 10 µM) it was 67%.
`CS(=O)(=O)c1ccc(C(=O)Nc2ccc(Cl)c(-c3ccccn3)c2)c(Cl)c1` [vismodegib] + COc1cc2ncnc(Nc3ccc(Oc4ccccc4)cc3)c2cc1OC [SrcI1] (first compound 5 µM, partner dose 10 µM) had a cell count of 92.3%.
With `NC1(c2ccc(-c3nc4ccn5c(=O)[nH]nc5c4cc3-c3ccccc3)cc2)CCC1` + O=C(O)C(=O)Nc1sc2c(c1C(=O)O)CCNC2 [TCS401] (first compound 2 µM, partner dose 8.33333 µM), the cell count was 74%.
In turn, `NC1(c2ccc(-c3nc4ccn5c(=O)[nH]nc5c4cc3-c3ccccc3)cc2)CCC1` + COc1ccc(COc2ccc(Cc3cnc(N)nc3N)cc2OC)cc1 [GW2580] (first compound 2 µM, partner dose 5 µM) gave a cell count of 69.6%.
On to `CS(=O)(=O)c1ccc(C(=O)Nc2ccc(Cl)c(-c3ccccn3)c2)c(Cl)c1` [vismodegib] + Cn1cc(/C=C2\C(=O)Nc3cccnc32)c2ccccc21 [GW441756] (first compound 5 µM, partner dose 2 µM), for which the cell count turned out to be 120%.
As to `NC1(c2ccc(-c3nc4ccn5c(=O)[nH]nc5c4cc3-c3ccccc3)cc2)CCC1` + CCN(CC)CCCCNc1ncc2cc(-c3cc(OC)cc(OC)c3)c(NC(=O)NC(C)(C)C)nc2n1 [PD173074] (first compound 2 µM, partner dose 0.5 µM), the cell count stood at 79.5%.
The value for `C=C(c1ccc(C(=O)O)cc1)c1cc2c(cc1C)C(C)(C)CCC2(C)C` [Bexarotene] + COc1ccc(-c2ccc3c(N4CCOCC4)nc(N4C[C@@H](C)O[C@@H](C)C4)nc3n2)cc1CO [KU0063794] (first compound 10 µM, partner dose 0.1 µM) was 97.5%; that for `NC1(c2ccc(-c3nc4ccn5c(=O)[nH]nc5c4cc3-c3ccccc3)cc2)CCC1` + c1cc(-c2cnn3cc(-c4ccc(OCCN5CCCCC5)cc4)cnc23)ccn1 [Dorsomorphin] (first compound 2 µM, partner dose 2 µM) was 52.3%.
The value for `CN(c1ncccc1CNc1nc(Nc2ccc3c(c2)CC(=O)N3)ncc1C(F)(F)F)S(C)(=O)=O` + O=S(=O)(c1ccccc1)N(CC(F)(F)F)c1ccc(C(O)(C(F)(F)F)C(F)(F)F)cc1 [T0901317] (first compound 0.4 µM, partner dose 7 µM) was 84.1%; that for `C=C(c1ccc(C(=O)O)cc1)c1cc2c(cc1C)C(C)(C)CCC2(C)C` [Bexarotene] + O=C1NC(=O)/C(=C/c2ccc(-c3ccc(F)cc3O)o2)S1 [AS252424] (first compound 10 µM, partner dose 5 µM) was 99.7%.

The values above are taken from the supplement of paper PMC4604168 (melanoma cell lines).
